PubChem BioAssay AID1240 (Sanford-Burnham Center for Chemical Genomics, 2008)
Out of some 50,000 compounds screened, about 800 (1.6%) showed an effect of 50% or more. This is one part of the list.

Target: Bcl-2-like protein 10 (Homo sapiens) (UniProt Q9HD36)
Assay: Phenotype converters, Bcl-B/TR3 peptide binding displacement, primary biochemical FP (AID 1240);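 also: 0% = Bcl-B with tracer peptide and DMSO and 100% = tracer peptide lacking Bcl-B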
Settings: GST-Bcl-B / FITC-TR3 peptide fluorescence polarization; stronger effect = higher value; compound at 3.75 mg/L

Sequence of UniProt Q9HD36 (Q9HD36 whole entry, looked up): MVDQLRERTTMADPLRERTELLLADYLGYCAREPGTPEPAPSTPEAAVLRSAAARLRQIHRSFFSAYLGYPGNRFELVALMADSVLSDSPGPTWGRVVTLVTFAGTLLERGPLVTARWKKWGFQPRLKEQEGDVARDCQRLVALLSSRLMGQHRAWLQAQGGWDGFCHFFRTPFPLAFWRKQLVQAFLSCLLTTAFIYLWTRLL

Row | Compound | displacement [%]
1 | COC(=O)C1=C(C)NC2=C(C(=O)CC(c3cccs3)C2)C1c1ccc(C)s1 (stereo not drawn) | 5.3
2 | CCC(C)NC(=O)CN(c1ccc(Br)cc1)S(C)(=O)=O (stereo not drawn) | 12.4
3 | CCc1ccc(N2C(=O)NC(=O)/C(=C\c3ccc(N4CCOCC4)o3)C2=O)cc1 | 15.7
4 | CCN(CC)S(=O)(=O)c1ccc(Cl)c(C(=O)Nc2ccccn2)c1 | -6
5 | O=C(O)Cc1ccc(C(F)(F)F)cc1[N+](=O)[O-] | 8.7
6 | COc1cc(NC(=O)COc2ccc(C)cc2)cc(OC)c1 | 3.9
7 | S=C(NCC1OCCc2ccccc21)Nc1ccccc1 (stereo not drawn) | -12.7
8 | COC(=O)C1=C(C)NC2=C(C(=O)CC(c3cccs3)C2)C1c1ccc2c(c1)OCO2 (stereo not drawn) | 1.8
9 | CCCC(=O)C1=C(O)C(C(=O)OC)C(C)(C)CC1=Nc1ccccc1OC (stereo not drawn) | -2
10 | COc1ccc(-c2cc(C(F)(F)F)n3nc(C(=O)N4CCCc5ccccc54)cc3n2)cc1 | -3.3
11 | CCOc1ccc(-c2csc(/C(C#N)=C\Nc3ccc(F)cc3)n2)cc1 | -6
12 | CCOc1ccc(/C=C(/NC(=O)c2cccc(Br)c2)C(=O)N2CCCC2)cc1 | -11.7
13 | COC(=O)c1cccc(NC(=O)c2ccccc2OC)c1 | -9.7
14 | O=C(Nc1ccc2c(c1)Cc1ccccc1-2)c1cc(Br)ccc1Cl | 11.9
15 | COc1cccc(CN2CCN(Cc3ccccc3[N+](=O)[O-])CC2)c1 | -16.6
16 | COc1ccc(C(=O)Nc2ccc(Br)cc2)cc1OC | 14.5
17 | O=C(/C=C/c1cn(Cc2ccccc2)c2ccccc12)c1ccc(Cl)cc1 | 11.4
18 | CC1(CC(=O)N/N=C/c2ccc(-c3ccc(Cl)cc3)o2)OCCO1 | 2.5
19 | CC(C)(C)C1CCc2c(sc(NC(=O)C3CCCO3)c2C#N)C1 (stereo not drawn) | -2.1
20 | O=[N+]([O-])c1ccc(/C=C(Cl)/C=N\n2cnnc2)cc1 | 10.5
21 | O=C(NC1(Cc2ccc(O)cc2)CCCCC1)c1ccccc1 | -2.6
22 | Cc1cccc(OCC(=O)Nc2ccc(Cl)c(Cl)c2)c1C | 3.3

Row | Compound | displacement [%]
23 | CCc1ccc(-c2nnc(-c3ccc(-c4ccc(OC)cc4)cc3)o2)cc1 | -0.6
24 | CCOC(=O)c1ccc(NC(=S)NC(NC(=O)c2ccccc2)C(Cl)(Cl)Cl)cc1 (stereo not drawn) | -10.6
25 | CN1C(=O)c2ccc(N(C)C)cc2C1=O | 20.2
26 | COc1ccc(Br)cc1CN1CCN(C2CCCCC2)CC1 | 6.2
27 | O=[N+]([O-])c1cccc(S(=O)(=O)NCC2CCCO2)c1 (stereo not drawn) | 14.5
28 | O=C(/C=C/c1ccccc1)NC(=S)Nc1ccc(Br)cn1 | 13.6
29 | O=C(NCCCNc1ccc(Cl)cc1[N+](=O)[O-])c1ccccc1F | 8.2
30 | O=C(/C=C/c1ccc2c(c1)OCO2)NC(c1ccccc1)c1ccccc1 | 6.1
31 | Cc1cc(Br)ccc1NC(=O)c1ccc(Cl)c([N+](=O)[O-])c1 | 10.5
32 | CCCC(=O)NS(=O)(=O)c1ccc(NC(=O)c2ccccc2)cc1 | 6.1
33 | CCC(C)c1ccc(NC(=O)/C=C/c2cccc([N+](=O)[O-])c2)cc1 (stereo not drawn) | 10.1
34 | O=C(NCCOc1cccc2ccccc12)Nc1cc(F)c(F)cc1Cl | -7.6
35 | O=C(CN1CCN(c2ccc([N+](=O)[O-])cc2)CC1)Nc1nccs1 | 0.2
36 | Cc1ccc(C(=O)N/N=C\c2ccc(I)o2)o1 | 8.4
37 | O=C1N=c2ccccc2=C1c1sc(=S)n(-c2cccc(C(F)(F)F)c2)c1O | -0.5
38 | CCOc1ccccc1NC(=O)Cc1ccc(OC)cc1 | -36.2
39 | O=C1CCCC2=C1C(c1ccc(O)cc1)Nc1ccccc1N2 (stereo not drawn) | -2.7
40 | O=C(Oc1cccc2ccccc12)c1ccco1 | 9.4
41 | O=C(NCCN1CCN(S(=O)(=O)c2ccc([N+](=O)[O-])cc2)CC1)C(=O)Nc1ccccc1 | 11.9
42 | COC(=O)c1ccc(NC(=O)c2ccccc2C(F)(F)F)cc1 | -8.3
43 | CN=C(Nc1ccc(Cl)cc1)SC1CC(=O)N(c2ccccc2F)C1=O (stereo not drawn) | 10.9
44 | Cc1cc(C)cc(OCCCCCCn2ccnc2)c1 | 8.9

Row | Compound | displacement [%]
45 | CN(C)c1ccc(NC(=O)COc2ccc(Cl)cc2Cl)cc1 | 15
46 | CCNC(=O)N1c2ccc(OCC)cc2C(C)=CC1(C)C | -0.4
47 | COc1ccc(N2C(=O)C=C(Nc3ccccc3)C2=O)cc1 | 5.4
48 | Cc1cccc(OCC(=O)N/N=C/c2cccc(OC(=O)c3cccc(F)c3)c2)c1 | 18.5
49 | Cc1ccc(-c2nc3cc(Cl)cc(Cl)c3o2)cc1NC(=O)c1ccc2c(c1)OCCO2 | 6.6
50 | O=C(NCCC12CC3CC(CC(C3)C1)C2)Nc1ccccc1 | 14.6
51 | COc1cc(CN=Cc2c(O)n(-c3ccc(F)cc3)c(=O)[nH]c2=O)cc(OC)c1 | 84.7
52 | O=C(COc1ccc(Cl)cc1Br)NNC(=O)c1ccncc1 | -4.5
53 | O=C(Nc1ccc(C(=O)c2ccccc2)cc1)c1ccc(Cl)cc1 | -5.1
54 | CCOC(=O)c1ccccc1NC(=O)CN(c1cccc(OC)c1)S(=O)(=O)c1ccccc1 | -5.1
55 | O=C(Nc1ccc2nn(-c3cccc4ccccc34)nc2c1)c1ccc([N+](=O)[O-])o1 | 15.7
56 | Oc1cccc(/C=N/Nc2ccccn2)c1 | -2.7
57 | O=C(CN1C(=O)/C(=C/c2ccccc2Cl)SC1=S)Nc1cccc(C(=O)O)c1 | 21
58 | COc1ccc(/C=C2\SC(=O)N(CC(=O)Nc3nccs3)C2=O)cc1OC | -10.4
59 | CC(C)(C)c1ccc(OCC(=O)Nc2cccc(OC(F)(F)F)c2)cc1 | 1.1
60 | O=C(N/N=C/c1ccc(-c2cccc(Cl)c2)o1)c1cccnc1 | 7.7
61 | C=CCN1C(=O)NC(=O)/C(=C/c2ccc(OCc3ccccc3[N+](=O)[O-])c(OC)c2)C1=O | 4.9
62 | CCn1c(C)c(C(=O)OC)c(/C=C2\C(=O)C=Cc3ccccc32)c1O | -11.8
63 | O=C1c2cccc3cccc(c23)C(=O)N1/N=C/c1ccc(Br)cc1 | 8.4
64 | Oc1ccccc1C(=S)N1CCOCC1 | 10.3
65 | CCOC(=O)c1c(NC(=O)c2cccc(Cl)c2)sc(C(=O)Nc2ccccc2C(F)(F)F)c1C | 34.5
66 | COc1cc(C(=O)NC(C)C2CC3CCC2C3)cc(OC)c1OC (stereo not drawn) | 4.2

Row | Compound | displacement [%]
67 | Cc1ccc(OCC(=O)Nc2ccc(F)c([N+](=O)[O-])c2)cc1 | 13.4
68 | COc1cc(C=C2C(=O)c3ccccc3C2=O)cc(I)c1OCc1ccc(Cl)cc1 | -0.5
69 | CCCNC(=O)c1cc(OC)c(OC)cc1[N+](=O)[O-] | 18.2
70 | O=C(Nc1ccc2ccccc2c1)c1cc(Cl)ccc1Cl | 5.2
71 | CCCc1ccc(-c2nc(-c3ccccn3)no2)cc1 | -10.9
72 | COc1cccc(NC(=O)CN(c2cccc(C(F)(F)F)c2)S(C)(=O)=O)c1 | 3.3
73 | CCC(=O)c1ccc(N2CCN(C(=O)c3ccc(F)c(F)c3)CC2)c(F)c1 | -1.9
74 | COc1ccc(CN(C(=O)c2ccco2)C2CC(C)N(C)CC2C)cc1 (stereo not drawn) | -10.1
75 | COc1ccc(C)cc1NC(=O)c1ccc(C)c(C)c1 | 2
76 | Cn1cnc2c1c(=O)n(Cc1ccc(F)cc1)c(=O)n2C | 6
77 | CC(=O)Nc1ccccc1C(=O)N1CCN(c2cccc(Cl)c2)CC1 | -8.2
78 | CCOc1ccc(NC(=O)CN(c2cc(C)cc(C)c2)S(=O)(=O)c2ccccc2)cc1 | 1.3
79 | CC1S/C(=N/N=C/c2cccs2)NC1=O (stereo not drawn) | 7.2
80 | O=C(/C=C/c1ccccc1)NC(=S)Nc1cccc(NC(=O)c2ccccc2Cl)c1 | -2.9
81 | NC1=NC2(CCCCC2)N=C(Nc2ccc(Cl)cc2)N1 | -5.4
82 | Nc1c(C(=O)c2cccc([N+](=O)[O-])c2)sc2nccc(Nc3ccccc3)c12 | -7.3
83 | COc1cc(C2C3=C(CC(C)(C)CC3=O)OC3=C2C(=O)CC(C)(C)C3)cc(Br)c1OCc1ccccc1 | 8
84 | O=C(O)C1CCCCC1C(=O)NCCC1=CCCCC1 (stereo not drawn) | -11.6
85 | O=S(=O)(c1cccc2ccccc12)n1nnc2ccccc21 | 0.1
86 | O=C(CSc1nnc(CCCN2C(=O)c3cccc4cccc(c34)C2=O)n1-c1ccccc1)NCc1cccnc1 | 8.3
87 | CCOc1cc(OCC)cc(C(=O)Nc2ccc3oc(-c4cccnc4)nc3c2)c1 | 5.6
88 | COc1ccc(OC)c(NC(=O)c2cc3ccccc3o2)c1 | 1

Row | Compound | displacement [%]
89 | Cc1nn(C(=O)C(C)N2C(=O)c3ccccc3C2=O)c(C)c1Br (stereo not drawn) | 11.6
90 | CCOc1ccccc1/C=C/C(=O)c1cccs1 | -11.9
91 | Cc1ccccc1NC(=O)C1COc2ccccc2O1 (stereo not drawn) | -7.2
92 | COc1ccc2c(c1OC)C(=O)OC2Nc1ccc(NC(C)=O)cc1 (stereo not drawn) | 13.8
93 | O=C(NCCCn1ccnc1)C12CC3CC(CC(C3)C1)C2 | 3.1
94 | CC(C)(C)C(=O)Nc1cccc(C(=O)Nc2c[nH]c(=O)[nH]c2=O)c1 | 10.3
95 | Cc1nonc1OCCn1nnnc1-c1ccccc1 | -9.7
96 | COc1cc(C(=O)Nc2ccc(S(=O)(=O)Nc3ncccn3)cc2)c(Br)c(OC)c1OC | -2.6
97 | O=C1NN(c2ccccc2)C(=O)/C1=C/c1ccc(OCCOCCOc2ccccc2)cc1 | 5.1
98 | COc1ccc(/C=N\OCC(=O)Nc2oc(-c3ccccc3)c(-c3ccccc3)c2C#N)cc1OC | -12.8
99 | O=C(CCc1ccccc1)N1CCN(c2ccc(F)cc2)CC1 | -7.7
100 | Cc1cccc(N2C(=O)CC(N3CCN(C(c4ccccc4)c4ccccc4)CC3)C2=O)c1 (stereo not drawn) | 7.1
101 | COc1ccc(NC(=O)/C=C/c2ccc(OC)c(OC)c2)c(OC)c1 | -0.9
102 | O=C(c1cnn2c(C(F)(F)F)cc(-c3ccc4c(c3)OCO4)nc12)N1CCOCC1 | 3.2
103 | O=c1/c(=C/c2ccccc2OCc2ccccc2F)sc2nc3ccccc3n12 | 12.4
104 | Cc1ccc(-c2nnc3ccc4ccccc4n23)cc1 | 20.3
105 | Cc1ccc(N2C(=O)CC(N3CCC(C(N)=O)CC3)C2=O)c(Br)c1 (stereo not drawn) | -3.6
106 | Cc1c(Cl)cccc1NC(=O)CSCc1cccc(Br)c1 | 5
107 | Cc1ccc(N2NC(=O)/C(=C/c3ccc(-c4ccc5c(c4)C(=O)NC5=O)o3)C2=O)cc1C | 18.2
108 | O=C1C(=O)N(c2ccccn2)C(c2cccc(Cl)c2)/C1=C(\O)c1ccc(Cl)cc1 (stereo not drawn) | 11.7
